# The whole screen tested about 110,000 compounds, of which about 230 (0.21%) showed an effect of 50% or more. This is one part of the list.
# Target: DPAP1 (Plasmodium falciparum, UniProt Q8IIJ9)
# Assay: primary screen, percent inhibition; read by cleavage of a fluorogenic dipeptide substrate; higher = more effect of the substance
# Set-up: species or system P. falciparum D10 trophozoite lysates; single well
# 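Further: 30 min substrate incubation versus DMSO and 10 µM JCP410 controls.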
# Chain of DPAP1 (Q8IIJ9 whole entry, looked up): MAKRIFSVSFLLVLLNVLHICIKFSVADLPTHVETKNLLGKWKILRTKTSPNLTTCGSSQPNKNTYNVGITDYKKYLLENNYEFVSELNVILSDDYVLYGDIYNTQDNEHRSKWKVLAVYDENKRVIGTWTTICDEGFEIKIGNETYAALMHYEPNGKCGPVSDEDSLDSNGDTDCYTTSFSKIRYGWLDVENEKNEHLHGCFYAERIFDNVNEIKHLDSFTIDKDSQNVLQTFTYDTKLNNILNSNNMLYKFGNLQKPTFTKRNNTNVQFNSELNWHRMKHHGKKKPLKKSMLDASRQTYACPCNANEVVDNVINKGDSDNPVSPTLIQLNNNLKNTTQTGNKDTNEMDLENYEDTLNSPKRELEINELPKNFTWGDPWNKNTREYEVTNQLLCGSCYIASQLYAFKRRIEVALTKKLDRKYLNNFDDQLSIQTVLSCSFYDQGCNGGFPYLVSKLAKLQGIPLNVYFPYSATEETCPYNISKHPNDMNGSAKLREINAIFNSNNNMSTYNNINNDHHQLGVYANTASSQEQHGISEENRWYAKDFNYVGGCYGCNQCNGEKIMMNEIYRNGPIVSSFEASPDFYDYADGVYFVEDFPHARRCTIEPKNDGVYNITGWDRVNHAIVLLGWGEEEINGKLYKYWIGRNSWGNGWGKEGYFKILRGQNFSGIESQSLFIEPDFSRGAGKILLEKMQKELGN
row,SMILES,% Inhibition @ 10 uM [%]
1,CCn1c(C(=O)NC2CCCC2)cc2oc3ccccc3c21,1.22
2,CC1=C(CCN2CCCC2CO)C(C)(C)CCC1 (centres unmarked),3.35
3,COc1ccccc1NC(=O)c1c(NC(=O)Cc2ccccc2)sc2c1CCC2,-2.58
4,CC(C)C[C@H](NC(=O)c1cccc(CN)c1)C(=O)NNC(=O)c1csc([C@H](CC(C)C)NC(=O)OCc2ccccc2)n1,0.744
5,CCCCN(CC)CCNC(=O)CCS(=O)(=O)c1cccc2nonc12,3.61
6,Cc1cc2c(c(=O)o1)C(c1ccc(F)cc1F)C(C#N)=C(N)O2 (centres unmarked),3.1
7,COc1ccc(CN2CCN(Cc3ccccc3OC)CC2)cc1Br,15.7
8,CC(Cc1ccccc1F)NN1CCOCC1 (centres unmarked),-5.31
9,CCOC(=O)C1=C(C)N=c2s/c(=C\c3ccccc3F)c(=O)n2C1c1ccccc1F (centres unmarked),-1.85
10,COc1ccc(CNC(=O)c2cn(C3CCCC3)c(=O)c3c2c2ccccc2n3C)c(OC)c1,0.163
11,CC/C(=N\N=C1\SC(C)C(=O)N1Cc1ccco1)c1ccccc1 (centres unmarked),-1.24
12,Cc1cc2nc(-c3c(O)c4ccccc4n(C)c3=O)[nH]c2cc1C,1.84
13,CCOc1ccnc(CSc2nc(C)cc(C)n2)c1C,0.843
14,Cc1ccc(S(=O)(=O)c2nnn3c2nc(N2CCN(Cc4ccccc4)CC2)c2ccccc23)cc1,-1.87
15,O=C1c2ccccc2C(O)(Cc2ccccc2)N1CC1CCCO1 (centres unmarked),-0.759
16,CC(=O)N1CCN(CCC2=C(C)CCCC2(C)C)CC1,-3.42
17,Cc1c(C(=O)NCCN2CCN(C)CC2)oc2ccc3c(c12)C(=O)CC1(CCCCC1)O3,-6.58
18,Cc1ccc(-c2noc(CCC(=O)NCCc3ccc(Cl)cc3)n2)cc1,2.42
19,O=[N+]([O-])c1ccc(NC2CCCc3ccccc32)nc1 (centres unmarked),0.565
20,COc1cc(CCNC(=O)CCc2nc3cccnc3n2-c2ccccc2)cc(OC)c1OC,-2.88
21,COc1ccc(Br)cc1C1C2=C(O)CC(C)(C)CC2=NC(C)=C1C(=O)N1CCOCC1 (centres unmarked),1.86
22,CC(C)c1ccc(C2C(C(=O)c3ccccc3)=C(O)C(=O)N2CCCN2CCOCC2)cc1 (centres unmarked),-6.81
23,O=S(=O)(Nc1ccc(Cl)cc1)c1ccc(F)cc1,1.83
24,COCCCNC(=O)c1cc(S(=O)(=O)N2CCC3(CC2)OCCO3)ccc1F,3.04
25,O=C(O)C1C2CCC(C2)C1C(=O)Nc1ccccc1 (centres unmarked),-0.996

row,SMILES,% Inhibition @ 10 uM [%]
1,COc1ccccc1OCc1ccc(C(=O)NCC(C)C)o1,-8.95
2,CCOc1ccc(-c2c(C)sc3ncn(CC(=O)O)c(=O)c23)cc1,-1.18
3,S=c1n(-c2ccccc2)cnn1CN1CCCCC1,-2.42
4,COc1ccc(C2NC(=O)NC(C)=C2C(=O)OCCOc2ccccc2)c(OC)c1 (centres unmarked),2.45
5,CCOc1ccccc1C1C2=C(O)CC(C)(C)CC2=Nc2nc(C(F)(F)F)nn21 (centres unmarked),-5.43
6,Cc1ccc(-n2cc(-c3ccccc3)c3c(NCCCN4CCOCC4)ncnc32)cc1,-2.84
7,COc1ccc(CCC(=O)Nc2cc(C)ccc2C)cc1,-1.2
8,N#Cc1nc(/C=C/c2ccc(F)cc2)oc1NCc1cccnc1,2.54
9,Cc1cccc2c(C(=O)O)c3c(nc12)CCCCC3,1.67
10,Cc1ccccc1CNC(=O)Cn1ncc2ccccc21,-5.32
11,Cc1ccccc1C(=O)NCCc1csc2nc(-c3ccccc3)nn12,3.05
12,CC(C)(C)C(=O)NC1(C(F)(F)F)N=C2SCCN2C1=O (centres unmarked),-3.53
13,Cc1cc(N2CCC(C(=O)N3CCOCC3)CC2)n2nc(C)c(-c3ccc(Cl)cc3)c2n1,-3.7
14,COc1ccc(NC(=O)C2CC=CCC2C(=O)OCC2CCCO2)cc1 (centres unmarked),-1.91
15,Cc1c(C(=O)NCC(=O)O)c(-c2ccccc2)nn1-c1ccccc1,0.716
16,Cc1ccc(S(=O)(=O)N(CCc2ccccc2)CC(=O)N2CCCC2)cc1,2.17
17,CCN1CCN(CCCNC(=O)c2oc3ccc(S(=O)(=O)N4CCOCC4)cc3c2C)CC1,1.16
18,Cc1sc(NS(=O)(=O)c2ccc(Br)cc2)nc1-c1ccccc1,5.44
19,O=C(Nc1cccc2c1C(=O)c1ccccc1C2=O)c1ccco1,-0.197
20,CSc1cccc(NC2CN3CCC2CC3)c1 (centres unmarked),-1.82
21,CCOP(=O)(OCC)C(Nc1ccc(Br)cc1)c1c[nH]c2ccccc12 (centres unmarked),-3.38
22,CN(C)c1nc(N)c2c(ncn2C)n1,2.06
23,CCN(CC)C(=O)Cn1cc(S(=O)(=O)Cc2c(F)cccc2Cl)c2ccccc21,6.05
24,OC(c1ccccc1)c1ccc2c(c1)c1c3n2CCNC3CCC1 (centres unmarked),-10.8
25,COc1cccc(C2=NC(C)=C(C#N)C(C(F)(F)F)(C(F)(F)F)N2)c1,-5.2

# Source: publication PMC6919601, “Identification of Plasmodium dipeptidyl aminopeptidase allosteric inhibitors by high throughput screening” (PLoS ONE, 2019)
